Experimental data published in patent publication US20260159607A1.

Legend:
purified DCLK1 [1] = biological target: purified DCLK1 (UniProt O15075); assay: Octet BLI; antibody on anti-human IgG Fc biosensor, purified DCLK1 in solution, 1:1 fit
purified DCLK1 [2] = biological target: purified DCLK1 (UniProt O15075); assay: Octet (BLI), antibody loaded on anti-human Fc (AHC) sensors, DCLK1 in solution at 100, 33.3, 11.1 and 3.7 nM, 1:1 fit

Kd (purified DCLK1 [1]): 6 nM
koff (purified DCLK1 [1]): 0.00053 s⁻¹
kon (purified DCLK1 [1]): 87000 M⁻¹ s⁻¹
Kd (purified DCLK1 [2]): 6.02 nM
B1: Chimeric parental (H6166 + L6165) (antibody, V domains shown)
VH: DVKLVESGGGLVKLGGSLKLSCAASGFTFSSYYMSWVRQTPEKRLELVAAINSNGGSTYYPDTVKGRFTISRDNAKNTLYLQMSSLKSEDTALYYCARHGGNYWYFDVWGAGTTVTVSS
VL: DIVMSQSPSSLAVSVGEKVTMS[sequence of about 80 residues omitted]FGGGTKLEIK
